# No constants are given. Whether binding was seen depends on the method and setting. Binding seen in cells or lysates may run through a third protein. Some entries that bind do so weakly or less than the wild type. For some assays here: Sequences can lack the tags named with a protein.
# The chains behind the UniProt entries cited, without tags or fusion partners. Where a name states a change or a piece, a line headed by the entry shows the natural chain unless it says otherwise.
# UniProt Q14790: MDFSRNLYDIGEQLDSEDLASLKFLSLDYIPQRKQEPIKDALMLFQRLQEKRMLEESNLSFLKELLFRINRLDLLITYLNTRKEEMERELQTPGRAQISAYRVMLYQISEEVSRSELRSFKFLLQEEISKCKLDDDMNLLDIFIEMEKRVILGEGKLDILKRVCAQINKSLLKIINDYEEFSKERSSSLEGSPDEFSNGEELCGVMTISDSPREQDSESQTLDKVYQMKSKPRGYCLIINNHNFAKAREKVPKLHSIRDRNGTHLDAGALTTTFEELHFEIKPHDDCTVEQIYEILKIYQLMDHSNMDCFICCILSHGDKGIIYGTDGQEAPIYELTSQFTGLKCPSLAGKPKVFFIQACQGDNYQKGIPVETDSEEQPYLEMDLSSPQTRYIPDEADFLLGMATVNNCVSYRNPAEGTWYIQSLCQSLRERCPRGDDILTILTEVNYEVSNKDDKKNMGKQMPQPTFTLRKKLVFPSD
# UniProt P98177: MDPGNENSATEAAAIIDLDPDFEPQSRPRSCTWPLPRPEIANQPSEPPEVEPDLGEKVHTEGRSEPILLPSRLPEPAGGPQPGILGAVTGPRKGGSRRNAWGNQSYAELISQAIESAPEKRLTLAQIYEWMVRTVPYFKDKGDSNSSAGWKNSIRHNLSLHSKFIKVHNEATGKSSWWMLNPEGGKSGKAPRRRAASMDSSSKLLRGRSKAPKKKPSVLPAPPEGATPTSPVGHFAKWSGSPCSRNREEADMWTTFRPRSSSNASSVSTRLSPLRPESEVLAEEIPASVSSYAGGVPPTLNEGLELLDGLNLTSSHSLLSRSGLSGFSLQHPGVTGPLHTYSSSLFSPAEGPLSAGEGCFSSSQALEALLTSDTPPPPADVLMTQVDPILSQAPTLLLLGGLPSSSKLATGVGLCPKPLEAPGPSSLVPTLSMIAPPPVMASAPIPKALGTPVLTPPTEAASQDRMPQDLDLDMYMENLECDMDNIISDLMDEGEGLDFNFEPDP
# Tests used:
# [1] = biological target: HA-caspase 8-C360S (UniProt Q14790); assay: co-IP; HEK293 cells transfected 24 h with HA-caspase 8-C360S and/or FLAG-FOXO4; IP with anti-HA, blot with indicated antibodies
# [2] = biological target: T1, endogenous FBXO7 (HEK293 cells) (human (endogenous in HEK293)) (UniProt Q9Y3I1); assay: co-IP; HEK293 cells transfected 24 h with FLAG- or HA-tagged catalytically inactive caspases; endogenous FBXO7; text: IP with anti-FLAG or anti-HA and blot with anti-FBXO7; legend: IP with anti-FBXO7
# T1 sequence: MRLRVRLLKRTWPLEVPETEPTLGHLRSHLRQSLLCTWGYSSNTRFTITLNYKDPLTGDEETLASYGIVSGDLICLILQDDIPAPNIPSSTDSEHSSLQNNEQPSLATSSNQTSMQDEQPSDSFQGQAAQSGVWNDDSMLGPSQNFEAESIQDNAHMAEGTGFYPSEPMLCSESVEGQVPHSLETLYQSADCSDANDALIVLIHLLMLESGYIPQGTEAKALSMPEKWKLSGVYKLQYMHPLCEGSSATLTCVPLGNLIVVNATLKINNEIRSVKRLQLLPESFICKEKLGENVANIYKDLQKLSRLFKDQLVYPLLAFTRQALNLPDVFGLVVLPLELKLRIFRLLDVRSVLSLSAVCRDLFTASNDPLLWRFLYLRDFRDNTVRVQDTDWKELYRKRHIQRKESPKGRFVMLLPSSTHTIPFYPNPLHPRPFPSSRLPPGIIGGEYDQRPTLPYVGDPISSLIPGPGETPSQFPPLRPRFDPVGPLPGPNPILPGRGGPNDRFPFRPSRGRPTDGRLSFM
# [3] = biological target: T2, FLAG-tagged human wild-type FBXO7 isoform-1 (human) (UniProt Q9Y3I1); assay: co-IP; HEK293 cells transfected with caspase 8-V5/His and FLAG-FBXO7-WT or a deletion mutant; IP with anti-FLAG, blot with anti-V5; Fig. S3B
# T2 sequence: T1 sequence
# [4] = biological target: T3, FLAG-tagged FBXO7 deletion mutant lacking the C-terminal region spanning amino acids 376-522 (human) (UniProt Q9Y3I1); assay: as above
# T3 sequence: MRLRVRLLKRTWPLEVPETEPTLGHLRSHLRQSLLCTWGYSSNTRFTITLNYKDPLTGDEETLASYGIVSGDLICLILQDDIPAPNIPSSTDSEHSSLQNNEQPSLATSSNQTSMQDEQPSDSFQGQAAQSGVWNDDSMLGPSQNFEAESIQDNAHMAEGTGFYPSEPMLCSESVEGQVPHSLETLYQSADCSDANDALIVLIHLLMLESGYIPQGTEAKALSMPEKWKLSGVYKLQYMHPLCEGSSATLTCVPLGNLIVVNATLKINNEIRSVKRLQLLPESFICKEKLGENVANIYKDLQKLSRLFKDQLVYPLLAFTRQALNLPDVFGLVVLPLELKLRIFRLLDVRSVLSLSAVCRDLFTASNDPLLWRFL
# [5] = biological target: T4, FLAG-tagged FBXO7 deletion mutant lacking the N-terminal region of amino acid 1-333 (human) (UniProt Q9Y3I1); assay: as above
# T4 sequence: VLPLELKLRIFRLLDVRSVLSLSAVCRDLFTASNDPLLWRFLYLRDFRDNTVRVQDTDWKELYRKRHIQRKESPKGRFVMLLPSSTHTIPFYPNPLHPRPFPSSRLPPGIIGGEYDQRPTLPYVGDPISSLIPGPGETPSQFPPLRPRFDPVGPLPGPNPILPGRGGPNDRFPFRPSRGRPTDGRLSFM
substance,measurement,setting,value
FLAG-tagged human FOXO4 (from UniProt P98177 1-505),binding,[1],binds
HA-caspase 8-C360S (from UniProt Q14790 1-479) (enzyme),binding,[2],binds
caspase 8-V5/His (from UniProt Q14790 1-479) (enzyme),binding,[3],binds
same,binding,[4],binds
same,binding,[5],no binding
